Some of the results follow. The energies were worked out here from pooled read counts, against the library average; single values are noisy.
Target: T1, Pho4 (S. cerevisiae) (UniProt P07270)
T1 sequence: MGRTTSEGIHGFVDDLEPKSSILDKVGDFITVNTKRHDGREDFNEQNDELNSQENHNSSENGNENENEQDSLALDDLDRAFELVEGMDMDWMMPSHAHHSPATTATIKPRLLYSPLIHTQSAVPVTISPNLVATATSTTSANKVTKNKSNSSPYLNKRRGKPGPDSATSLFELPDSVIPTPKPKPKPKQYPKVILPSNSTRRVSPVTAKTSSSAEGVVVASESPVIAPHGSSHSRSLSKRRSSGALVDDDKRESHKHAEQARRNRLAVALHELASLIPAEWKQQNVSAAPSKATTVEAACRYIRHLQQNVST
Assay: relative binding free energy (BET-seq); higher = weaker binding
Details: reference: library average

Sequence | relative binding free energy [kcal/mol]
GGGGTCACGTGGAGTT | 0.25
GTTTCCACGTGCTGTG | 0.09
TGGGGCACGTGTGTTA | -0.04
GAGATCACGTGAGTGT | 0.26
TGTGTCACGTGTTAGA | 0.07
GATGGCACGTGTCGTT | -0.04
TGCCTCACGTGGGTGA | 0.06
ATTATCACGTGCGGGA | 0.13
CTTGGCACGTGGAGGC | -0.02
AGACGCACGTGTCGTG | -0.05
GATATCACGTGGCTTG | 0.13
GGTTCCACGTGAGAGT | 0.42
GGGACCACGTGAGGTT | 0.21
AGTGACACGTGGTTAG | -0.12
TAATACACGTGGGCGT | -0.22
GTTTGCACGTGATAAT | 0.18
TAAGCCACGTGATGGT | 0.1
ATTTGCACGTGGTTCT | -0.09
GTGATCACGTGTGTTT | 0.24
GGGGTCACGTGCTGAT | 0.05
TATAGCACGTGATGGA | 0.11
GAGATCACGTGTATTG | 0.14
GCTTACACGTGGGTGT | 0.08
TGAGACACGTGTATTG | -0.11
AAGGGCACGTGCTTTG | -0.07

Sequence | relative binding free energy [kcal/mol]
TTGCTCACGTGTTTTG | 0.09
TATGTCACGTGAGAGC | 0.27
TAAATCACGTGTAAAT | 0.3
TGAGCCACGTGTGTTG | -0.03
GTTGACACGTGTATTA | 0.19
GTGGCCACGTGTTAGT | 0.06
GATATCACGTGGGGCT | 0.02
GAGGGCACGTGTTGTA | 0
AGTTGCACGTGCTGGC | -0.07
CATGGCACGTGCTGGG | -0.17
ATGCACACGTGGCGTG | -0.06
TCGTGCACGTGCGCGT | -0.02
AGTGTCACGTGAAGCA | 0.35
GTTTACACGTGCGTAG | 0.07
TGGTTCACGTGACAGA | 0.32
ATTGTCACGTGCTTTT | 0.05
TATTACACGTGATATA | 0.12
TGGTCCACGTGGGAGT | -0.01
TTATTCACGTGACGGA | 0.22
TGATGCACGTGTGATT | 0.09
TGTGACACGTGAAAGC | 0.36
GGCGGCACGTGGATTA | 0.17
GTGAACACGTGGGAGC | -0.06
TCGCGCACGTGAAGGG | 0.12
GCTCGCACGTGTGGAG | 0.09

Sequence | relative binding free energy [kcal/mol]
CGGGGCACGTGAGGGG | 0.19
GTGTGCACGTGAGGTA | 0.14
CTCGGCACGTGTCGGG | -0.01
ATTATCACGTGATCTT | 0.18
GAGTGCACGTGTTATA | 0
CCGGGCACGTGGTGTG | -0.27
TCAGCCACGTGGGGTG | -0.24
ATGTACACGTGAAGTA | 0.19
GTGAGCACGTGCAGTT | -0.12
GGATGCACGTGTGGCT | 0.02
GATGGCACGTGTGAAT | 0.16
GGGGGCACGTGTCGGC | -0.11
GTTGGCACGTGGTCGG | -0.13
TGGTGCACGTGTGGTA | 0.03
CGGGGCACGTGTCAGT | -0.1
TCGGGCACGTGGCCGG | -0.11
GCGAGCACGTGTTGTT | -0.18
TTGGACACGTGGAATG | 0.12
AAGGGCACGTGATCTT | -0.08
TTATGCACGTGATTGA | 0.04
TTGATCACGTGACTTG | 0.24
GGTTACACGTGAATTG | 0.28
GTGCGCACGTGTCTGG | -0.15
TATAGCACGTGTCGAT | 0.05
TGTTACACGTGTGGAA | 0.26

Sequence | relative binding free energy [kcal/mol]
TAATGCACGTGAGTAT | 0.13
AAATGCACGTGGTGTC | -0.05
GATAGCACGTGGGGTT | -0.01
AGGGGCACGTGGGGCC | -0.23
ATTAACACGTGTGATT | 0.06
TTCTTCACGTGTAGGG | 0.32
CTGGGCACGTGGTTGT | -0.09
AGGGACACGTGGTTAT | 0.18
TAGTTCACGTGAGATT | 0.51
AGTGCCACGTGGGCTG | -0.32
TGTTGCACGTGACATG | 0.11
TTAAGCACGTGTGAGA | -0.04
GAACGCACGTGTTGGG | -0.03
GTTTTCACGTGCGTTG | 0.31
TGAGGCACGTGGCCGT | -0.25
TTCGTCACGTGGCTGG | 0.14
TGTGGCACGTGTCTCT | -0.15
AGGGGCACGTGTTACT | -0.07
ATGGGCACGTGTGTTT | -0.05
GTTGGCACGTGCTTGA | -0.16
GGGGACACGTGATCGT | 0.05
TAACGCACGTGTGCGG | -0.03
GTTTTCACGTGGATAG | 0.3
TGGTACACGTGCGTTG | 0.03
TTGTACACGTGAAATT | 0.36

Sequence | relative binding free energy [kcal/mol]
ATAGTCACGTGAGAGG | 0.29
GGAAGCACGTGCTGGT | -0.06
GCGTGCACGTGAGCGG | 0.06
TGGCGCACGTGGGCGG | -0.19
GAGGTCACGTGTTGTG | 0.14
TCGTGCACGTGCAGTG | -0.16
AATTGCACGTGTTAGA | -0.01
ACGCTCACGTGTGGGG | 0.24
AGAGCCACGTGGGGTC | -0.16
ATCGGCACGTGGTTTT | -0.08
CTTGGCACGTGGAAAG | 0.05
TTAGACACGTGATGCG | 0.01
AGGTGCACGTGCCGGC | 0.03
GTATTCACGTGGGGCA | 0.09
GAATACACGTGGGTTT | -0.02
TTTGTCACGTGTAGGA | 0.08
TGATTCACGTGGATTT | 0.19
TTGAGCACGTGAGGCG | 0.28
GGTCTCACGTGGAGCG | 0.14
AATGACACGTGATGAG | 0.11
ATCTACACGTGGTTGG | -0.02
ATGTGCACGTGGTTGA | -0.09
TTTTTCACGTGGTGTA | 0.25
TTTGCCACGTGTAGTG | -0.08
TTCGTCACGTGAATGT | 0.21

Sequence | relative binding free energy [kcal/mol]
TTGTTCACGTGCAGGT | 0.23
CGCTTCACGTGTGGGT | 0.13
TAGGACACGTGTCTGG | 0.05
ATACTCACGTGGGTAT | 0.11
GGATTCACGTGTGTTG | 0.34
GGGTGCACGTGGTACG | -0.06
ACTTGCACGTGGGGCG | -0.13
TTGCTCACGTGGAGCG | 0.26
CTAGGCACGTGGTGTT | -0.2
GGTTGCACGTGGCAAG | 0.09
AGTGGCACGTGATATA | 0.05
TTGAGCACGTGCGTTG | -0.13
TAATGCACGTGGCGCT | -0.03
GTGTCCACGTGGAAAG | 0.31
TTTAGCACGTGGAAGA | 0.1
TTGGTCACGTGAGTCG | 0.36
AGAGACACGTGGTGTG | -0.16
TGTGACACGTGTTCTT | -0.02
TTCCTCACGTGAAGGT | 0.58
TCGTACACGTGTTAGG | 0.03
TAGTGCACGTGAAGTA | 0.01

From the BET-seq Pho4 binding data (Le et al. 2018)
